Experimental data reported in PMC9260856.
Results are given in words; binding and its absence hold for the method and conditions named. Binding seen in cells or lysates may run through a third protein. Some binding calls cover weakened binding; strength is not graded here. Where a sequence is shown, tags or fusion partners need not be part of it. Blank lines part the entries; values can stand above or below the molecule they belong to.

Chains of the proteins cited; added tags and fusions are not shown.
UniProt Q93009: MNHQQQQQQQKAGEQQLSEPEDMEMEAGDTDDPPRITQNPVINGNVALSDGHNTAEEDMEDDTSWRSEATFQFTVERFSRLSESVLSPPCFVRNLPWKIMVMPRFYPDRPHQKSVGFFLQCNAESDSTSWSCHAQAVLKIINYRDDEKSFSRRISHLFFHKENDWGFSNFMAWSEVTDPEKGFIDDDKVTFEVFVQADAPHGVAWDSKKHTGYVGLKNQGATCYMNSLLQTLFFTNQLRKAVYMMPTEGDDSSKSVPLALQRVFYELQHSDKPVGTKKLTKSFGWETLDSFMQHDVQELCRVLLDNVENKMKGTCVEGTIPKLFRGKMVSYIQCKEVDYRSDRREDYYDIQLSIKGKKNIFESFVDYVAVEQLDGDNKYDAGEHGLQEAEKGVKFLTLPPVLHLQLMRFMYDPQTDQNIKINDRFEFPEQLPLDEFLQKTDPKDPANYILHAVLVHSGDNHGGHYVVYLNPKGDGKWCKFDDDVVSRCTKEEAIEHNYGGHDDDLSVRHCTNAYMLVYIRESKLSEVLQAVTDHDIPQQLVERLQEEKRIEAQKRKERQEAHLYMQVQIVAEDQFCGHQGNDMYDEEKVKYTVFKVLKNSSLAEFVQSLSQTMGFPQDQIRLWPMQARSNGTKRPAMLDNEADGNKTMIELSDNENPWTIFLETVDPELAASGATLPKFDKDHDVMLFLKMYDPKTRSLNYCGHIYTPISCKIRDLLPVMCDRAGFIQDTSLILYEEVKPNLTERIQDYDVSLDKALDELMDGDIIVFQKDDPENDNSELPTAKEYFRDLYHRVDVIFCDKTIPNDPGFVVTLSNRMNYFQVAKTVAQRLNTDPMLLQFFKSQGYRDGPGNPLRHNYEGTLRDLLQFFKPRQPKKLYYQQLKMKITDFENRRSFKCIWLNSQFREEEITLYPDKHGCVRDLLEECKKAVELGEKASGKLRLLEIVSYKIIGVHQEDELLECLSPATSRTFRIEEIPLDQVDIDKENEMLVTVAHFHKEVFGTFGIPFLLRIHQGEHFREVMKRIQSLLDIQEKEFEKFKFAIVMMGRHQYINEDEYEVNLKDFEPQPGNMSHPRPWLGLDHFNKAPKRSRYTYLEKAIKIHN

Experiments:
[1] = target: T1, StrepII-FLAG-tagged wild-type FBXO38 (SF-FBXO38 WT), transfected in HEK293T cells (human) (UniProt Q6PIJ6); test: co-IP; SF-tagged bait affinity-purified on Strep-Tactin Sepharose from whole-cell lysates of transfected HEK293T cells (150 mM NaCl, 50 mM Tris pH 7.5, 0.4% Triton X-100, Benzonase), desthiobiotin elution, immunoblot; MLN4924 before collecting where indicated
T1 sequence: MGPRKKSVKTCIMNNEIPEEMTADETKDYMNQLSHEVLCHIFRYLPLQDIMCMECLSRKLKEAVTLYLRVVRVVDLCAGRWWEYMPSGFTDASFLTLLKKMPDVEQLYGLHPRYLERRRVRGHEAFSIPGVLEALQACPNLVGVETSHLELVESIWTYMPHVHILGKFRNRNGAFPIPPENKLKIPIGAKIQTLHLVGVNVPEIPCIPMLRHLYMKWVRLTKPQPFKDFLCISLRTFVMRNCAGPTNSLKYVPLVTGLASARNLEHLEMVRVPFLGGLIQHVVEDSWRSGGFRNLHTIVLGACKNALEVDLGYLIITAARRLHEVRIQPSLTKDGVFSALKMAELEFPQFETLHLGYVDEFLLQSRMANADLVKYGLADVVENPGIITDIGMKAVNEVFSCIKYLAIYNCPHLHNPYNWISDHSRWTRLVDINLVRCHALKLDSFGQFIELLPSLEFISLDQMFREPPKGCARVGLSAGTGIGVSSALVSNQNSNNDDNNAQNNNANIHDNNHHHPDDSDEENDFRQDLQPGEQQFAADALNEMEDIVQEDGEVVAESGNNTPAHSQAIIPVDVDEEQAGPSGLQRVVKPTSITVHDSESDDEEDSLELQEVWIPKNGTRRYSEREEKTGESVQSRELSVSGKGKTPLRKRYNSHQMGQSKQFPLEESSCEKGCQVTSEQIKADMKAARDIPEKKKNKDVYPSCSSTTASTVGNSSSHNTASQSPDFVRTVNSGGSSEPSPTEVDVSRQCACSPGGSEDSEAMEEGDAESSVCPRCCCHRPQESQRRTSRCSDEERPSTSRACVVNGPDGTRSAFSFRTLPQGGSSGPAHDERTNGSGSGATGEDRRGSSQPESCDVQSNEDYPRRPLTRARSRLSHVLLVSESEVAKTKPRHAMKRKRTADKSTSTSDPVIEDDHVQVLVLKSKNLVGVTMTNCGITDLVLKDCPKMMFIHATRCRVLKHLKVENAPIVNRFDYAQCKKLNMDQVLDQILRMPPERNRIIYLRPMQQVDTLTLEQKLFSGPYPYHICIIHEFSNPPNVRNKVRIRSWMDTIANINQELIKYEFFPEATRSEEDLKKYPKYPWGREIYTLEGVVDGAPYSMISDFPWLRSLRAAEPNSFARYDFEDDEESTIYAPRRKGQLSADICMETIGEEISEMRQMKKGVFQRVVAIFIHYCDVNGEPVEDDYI

[2] = target: T2, StrepII-FLAG-tagged FBXO38 lacking the C-terminus (FBXO38^Δ1091-1188) (human) (UniProt Q6PIJ6); test: as above
T2 sequence: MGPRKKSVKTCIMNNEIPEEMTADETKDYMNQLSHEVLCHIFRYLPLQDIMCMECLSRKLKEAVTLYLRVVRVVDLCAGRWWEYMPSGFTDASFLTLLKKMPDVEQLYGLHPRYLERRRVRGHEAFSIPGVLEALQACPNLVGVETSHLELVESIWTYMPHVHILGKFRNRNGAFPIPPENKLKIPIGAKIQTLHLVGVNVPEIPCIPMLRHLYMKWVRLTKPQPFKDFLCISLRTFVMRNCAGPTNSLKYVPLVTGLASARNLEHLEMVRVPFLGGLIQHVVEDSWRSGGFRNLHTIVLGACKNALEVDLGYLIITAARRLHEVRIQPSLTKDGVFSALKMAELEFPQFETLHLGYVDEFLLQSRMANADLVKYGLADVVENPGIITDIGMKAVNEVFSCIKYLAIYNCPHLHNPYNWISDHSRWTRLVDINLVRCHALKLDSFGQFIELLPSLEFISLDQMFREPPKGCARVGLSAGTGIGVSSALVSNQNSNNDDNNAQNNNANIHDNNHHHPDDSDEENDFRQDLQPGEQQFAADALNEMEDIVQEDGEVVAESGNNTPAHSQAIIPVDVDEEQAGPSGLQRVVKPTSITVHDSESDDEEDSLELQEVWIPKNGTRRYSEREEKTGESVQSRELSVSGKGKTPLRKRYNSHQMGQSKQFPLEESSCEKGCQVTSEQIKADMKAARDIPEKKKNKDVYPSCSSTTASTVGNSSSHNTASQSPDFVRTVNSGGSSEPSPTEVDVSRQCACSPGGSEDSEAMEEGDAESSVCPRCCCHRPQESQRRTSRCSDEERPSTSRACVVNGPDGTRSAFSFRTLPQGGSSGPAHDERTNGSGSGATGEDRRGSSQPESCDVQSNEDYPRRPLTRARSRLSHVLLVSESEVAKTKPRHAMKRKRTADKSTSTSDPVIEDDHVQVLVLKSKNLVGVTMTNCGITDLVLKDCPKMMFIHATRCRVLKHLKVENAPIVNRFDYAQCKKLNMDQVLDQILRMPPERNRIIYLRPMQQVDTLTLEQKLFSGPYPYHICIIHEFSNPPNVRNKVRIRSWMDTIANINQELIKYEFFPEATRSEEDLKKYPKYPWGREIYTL

[3] = target: T3, StrepII-FLAG-tagged ZXDA (SF-ZXDA), inducibly expressed in HeLa cells (human) (UniProt P98168); test: co-IP; SF-ZXDA and mutants, doxycycline-induced (24 h) in HeLa cells, affinity-purified on Strep-Tactin resin from whole-cell lysates, immunoblot
T3 sequence: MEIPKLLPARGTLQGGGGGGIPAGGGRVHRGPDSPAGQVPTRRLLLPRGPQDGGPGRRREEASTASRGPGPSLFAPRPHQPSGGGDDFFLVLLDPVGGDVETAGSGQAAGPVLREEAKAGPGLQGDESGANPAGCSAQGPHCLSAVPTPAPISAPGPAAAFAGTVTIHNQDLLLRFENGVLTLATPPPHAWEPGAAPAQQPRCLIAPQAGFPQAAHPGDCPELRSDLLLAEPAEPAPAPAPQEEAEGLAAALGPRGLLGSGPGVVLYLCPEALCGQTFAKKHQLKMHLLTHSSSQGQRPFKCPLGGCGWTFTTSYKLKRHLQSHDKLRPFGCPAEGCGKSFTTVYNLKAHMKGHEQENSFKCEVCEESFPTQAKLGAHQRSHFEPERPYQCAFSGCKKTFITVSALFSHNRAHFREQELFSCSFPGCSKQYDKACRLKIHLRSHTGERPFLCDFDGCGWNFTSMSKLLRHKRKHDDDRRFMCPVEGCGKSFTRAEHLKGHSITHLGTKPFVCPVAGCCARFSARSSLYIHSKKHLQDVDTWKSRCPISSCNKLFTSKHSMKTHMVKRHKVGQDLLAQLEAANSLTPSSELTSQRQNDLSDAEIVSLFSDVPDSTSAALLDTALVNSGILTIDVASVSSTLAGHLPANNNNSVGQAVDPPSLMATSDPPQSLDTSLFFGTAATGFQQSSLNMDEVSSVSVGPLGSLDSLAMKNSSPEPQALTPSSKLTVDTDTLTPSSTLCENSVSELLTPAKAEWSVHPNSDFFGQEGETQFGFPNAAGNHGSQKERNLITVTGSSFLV

[4] = target: T4, eGFP-tagged CENP-B (eGFP-CENP-B), stably expressed in HeLa cells (UniProt P07199); test: co-IP; eGFP-CENP-B immunoprecipitated with GFP-Trap magnetic beads from the soluble protein fraction of HeLa cells, with or without MLN4924 for 6 h; parental cells as control
T4 sequence: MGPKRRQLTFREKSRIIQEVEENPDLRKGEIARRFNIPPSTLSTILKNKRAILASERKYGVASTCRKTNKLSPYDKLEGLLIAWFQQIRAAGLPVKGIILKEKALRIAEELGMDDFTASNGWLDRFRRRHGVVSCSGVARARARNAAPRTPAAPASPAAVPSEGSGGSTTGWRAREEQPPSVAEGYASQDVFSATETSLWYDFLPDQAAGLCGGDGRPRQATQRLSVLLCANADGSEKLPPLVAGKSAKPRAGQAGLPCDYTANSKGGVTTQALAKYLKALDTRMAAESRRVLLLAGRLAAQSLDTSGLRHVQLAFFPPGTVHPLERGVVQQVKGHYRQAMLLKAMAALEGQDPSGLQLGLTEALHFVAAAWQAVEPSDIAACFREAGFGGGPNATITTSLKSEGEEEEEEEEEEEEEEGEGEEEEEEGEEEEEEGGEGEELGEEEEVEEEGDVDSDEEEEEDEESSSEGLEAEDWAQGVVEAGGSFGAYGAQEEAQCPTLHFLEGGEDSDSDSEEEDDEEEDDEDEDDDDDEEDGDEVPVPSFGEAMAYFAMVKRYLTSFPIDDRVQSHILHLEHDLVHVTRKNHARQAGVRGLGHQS

binding [1]: binds
binding [2]: binds
Molecule: USP7 deubiquitinase, endogenous in HEK293T cells (from UniProt Q93009 1-1102) (enzyme)

binding [3]: binds
binding [4]: no binding
B1: FBXO38, endogenous in HeLa cells (protein, UniProt Q6PIJ6 1-1188)
chain: T1 sequence
